This note sets out measurements from PMC8175350, “Drug repurposing screens identify chemical entities for the development of COVID-19 interventions” (Nature Communications, 2021).

This test deals with SARS-CoV-2. Format: cell-based. As to conditions: HeLa-ACE2, replicate wells n=1-3.

“And” between values parts separate entries of the source, which are not always exact repeats. Identical values can stand only once. Like-named read-outs stand apart in the source and are kept apart here. This continues a long series; more values of the same kind are listed elsewhere.

In the case of `CCC(CC)COC(=O)[C@H](C)N[P@](=O)(OC[C@H]1O[C@@](C#N)(c2ccc3c(N)ncnn23)[C@H](O)[C@@H]1O)Oc1ccccc1` [Remdesivir], the “%infected” value (concentration log[M] -6.09621) is -100.159% and -100.345% and -98.3858%; the “%infected” value (concentration log[M] -6.57334) was -92.2917% and -84.4831% and -83.5663% and -86.7867% and -95.3196% and -98.1415% and -96.6221% and -91.1676% and -87.7705%; the “%infected” value (concentration log[M] -7.05046) is -42.6135% and -4.7753% and -28.0619% and -19.0689% and -37.5548% and -30.7902% and -26.9855% and -34.3961% and -28.2794%; the “%infected” value (concentration log[M] -8.0047) is 8.73% and -1.514% and 10.2626% and 8.052% and 9.795% and 0.1568% and -9.185% and 9.12% and 15.1715%.

With `Cc1cccc(/C=N/Nc2cc(N3CCOCC3)nc(OCCc3ccccn3)n2)c1` [Apilimod], the “%infected” value by setting is: (concentration log[M] -8.0047) -65.1628% and -50.4241%; (concentration log[M] -8.48182) -30.5207% and -37.7731% and -31.008% and -19.9214% and -34.8787% and -24.3256% and -31.1044% and -49.3084% and -24.1686%; (concentration log[M] -8.95894) -15.5766% and -9.504% and -5.148% and -21.2775% and -12.3754% and -4.023% and -19.893% and -22.0413% and -25.061%.

With `COc1ccc(C[C@H](N)C(=O)N[C@H]2[C@@H](O)[C@H](n3cnc4c(N(C)C)ncnc43)O[C@@H]2CO)cc1` [Puromycin], the “%infected” value (concentration log[M] -6.4484) was -1.769% and 4.74% and 2.092% and -22.3745% and -9.86% and -30.6458% and -12.4548% and -2.689%; the “%infected” value (concentration log[M] -6.9255) is 16.503% and 24.8671% and 7.596% and 10.4443% and -4.261% and -4.437% and 8.087% and 10.8457% and -1.191%; the “%infected” value (concentration log[M] -7.4026) was 8.129% and 3.2187% and 1.332% and 4.206% and 7.482% and 1.836% and 5.209% and -6.283% and -4.717%; the “%infected” value (concentration log[M] -7.8798) was 4.457% and 3.21% and 6.351% and -0.4188% and 2.19% and 8.65% and 15.3688% and 8.111% and 5.058%.
